# Among all 310,000 compounds or so, about 14,000 (4.5%) showed an effect of 50% or more. Effects have a minus sign here. This is one part of the list.
# Molecular target: human ether-à-go-go-related gene (hERG) potassium channel (human, UniProt Q12809)
# Experiment: primary screen, population patch clamp on CHO cells stably expressing hERG
# 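Also: peak tail current of the secondary pulse compared with the same well before compound.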
# Sequence of human ether-à-go-go-related gene (hERG) potassium channel (Q12809 whole entry, looked up): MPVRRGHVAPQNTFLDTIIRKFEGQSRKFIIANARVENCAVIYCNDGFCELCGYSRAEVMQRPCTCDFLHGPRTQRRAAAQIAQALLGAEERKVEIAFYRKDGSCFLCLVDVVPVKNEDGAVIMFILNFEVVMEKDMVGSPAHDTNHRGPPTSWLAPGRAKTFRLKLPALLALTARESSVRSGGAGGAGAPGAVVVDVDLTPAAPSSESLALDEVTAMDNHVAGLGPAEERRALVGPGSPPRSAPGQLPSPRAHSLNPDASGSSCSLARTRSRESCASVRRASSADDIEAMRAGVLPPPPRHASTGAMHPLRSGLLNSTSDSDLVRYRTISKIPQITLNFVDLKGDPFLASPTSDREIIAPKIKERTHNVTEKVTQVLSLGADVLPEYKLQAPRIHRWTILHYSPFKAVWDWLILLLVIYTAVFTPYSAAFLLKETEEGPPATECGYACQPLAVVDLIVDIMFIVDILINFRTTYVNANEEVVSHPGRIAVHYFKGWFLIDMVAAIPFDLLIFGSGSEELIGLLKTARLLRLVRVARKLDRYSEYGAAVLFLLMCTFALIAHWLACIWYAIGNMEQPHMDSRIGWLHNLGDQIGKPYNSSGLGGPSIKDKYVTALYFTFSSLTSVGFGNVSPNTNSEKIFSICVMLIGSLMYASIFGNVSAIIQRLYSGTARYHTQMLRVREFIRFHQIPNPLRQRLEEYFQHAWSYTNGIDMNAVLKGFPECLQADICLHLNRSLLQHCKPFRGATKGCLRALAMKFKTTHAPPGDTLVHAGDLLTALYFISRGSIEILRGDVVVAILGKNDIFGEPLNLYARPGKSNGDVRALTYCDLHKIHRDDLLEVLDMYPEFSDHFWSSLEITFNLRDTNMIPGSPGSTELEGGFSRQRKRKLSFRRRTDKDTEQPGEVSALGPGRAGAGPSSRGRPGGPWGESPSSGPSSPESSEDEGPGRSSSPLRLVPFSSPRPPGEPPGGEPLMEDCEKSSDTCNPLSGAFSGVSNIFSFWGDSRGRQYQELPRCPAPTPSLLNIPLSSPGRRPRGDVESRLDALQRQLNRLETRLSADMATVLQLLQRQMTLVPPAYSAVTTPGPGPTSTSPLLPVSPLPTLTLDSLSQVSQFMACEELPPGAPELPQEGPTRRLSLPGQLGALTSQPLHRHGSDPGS
row,Structure (SMILES),"hERG current change (%, negative = inhibition) at 10uM"
1,Cc1ccc(NC(=O)COc2ccc(N3CC(C(N)=O)CC3=O)cc2)c(C)c1 (centres unmarked),6.84%
2,O=C(COc1ccccc1)Nc1nc(-c2ccncc2)cs1,-7.97%
3,CC(CC(=O)N1CCN(S(=O)(=O)c2ccc([N+](=O)[O-])cc2)CC1)c1ccccc1 (centres unmarked),-67.8%
4,Cn1nc(-c2ccccc2F)c2cc(C(=O)N3CCN(C(=O)c4ccco4)CC3)sc21,-57.2%
5,O=C1c2ccccc2N2C(=O)c3ccccc3C2N1O (centres unmarked),22.5%
6,CCc1cc(CNC(=O)CC2C(=O)NCCN2Cc2c(F)cccc2Cl)on1 (centres unmarked),17.5%
7,Cc1ccc(N/N=C(/Sc2nnnn2-c2ccccc2)C(=O)c2ccccc2)cc1,4.62%
8,Cc1cc(Cl)ccc1NC(=O)CSc1n[nH]c(N)n1,19.7%
9,COc1ccc(N(C)S(=O)(=O)c2cccc(C(=O)Nc3ccc(-n4cnnn4)cc3)c2)cc1,6.15%
10,O=C(c1ccc(S(=O)(=O)N2CCOCC2)cc1)N(c1ccc(F)cc1)C1C=CS(=O)(=O)C1 (centres unmarked),-16.5%
11,CCOCCCNS(=O)(=O)c1ccc2c(c1)oc(=O)n2CC(=O)OCC,9.83%
12,COC(=O)C1=C(C)N(c2ccccc2)/C(=C/c2cccs2)C1=O,3.92%
13,CCCCOP(=O)(c1ccc(N(C)C)cc1)C(O)c1ccc(OC)cc1 (centres unmarked),-2.61%
14,Cc1[nH]c2ccccc2c1CCN(Cc1cccs1)C(=S)Nc1ccccc1,14.4%
15,COc1cc(/C=N/NC(=O)Cn2nc([N+](=O)[O-])cc2C)cc(Br)c1OCc1ccccc1,17.1%
16,OCCN(Cc1ccccc1)C(=S)Nc1ccc(F)cc1,16.8%
17,Cc1c(Cl)cccc1NC(=O)CSc1nncn1-c1ccccn1,13%
18,CN(C)/C=N/NC(=O)C1Cc2c(ccc3ccccc23)O1 (centres unmarked),10.6%
19,COc1ccc(/C=N/NC(=O)c2[nH]nc3c2CCc2ccccc2-3)cc1OC,-4.02%
20,Cc1[nH][nH]c(=O)c1C=NCc1ccc(Cl)cc1,16.8%
21,Cc1ccccc1C(=O)NCC(=O)NNC(=S)NC(=O)c1ccccc1C,9.99%
22,CC(=O)Nc1ccc(OC(=O)c2ccc(Br)c([N+](=O)[O-])c2)cc1,7.81%

row,Structure (SMILES),"hERG current change (%, negative = inhibition) at 10uM"
1,Cc1nc2ccc3nc(NC(=O)C4COc5ccccc5O4)sc3c2s1 (centres unmarked),8.88%
2,COc1ccccc1C(=O)Nc1ccc(C2=NNC(=O)CC2C)cc1 (centres unmarked),-5.65%
3,O=C(CSc1nnc(NC(=O)C2CCC2)s1)Nc1ccccc1,-2.37%
4,Clc1ccc(OCCCc2nc(-c3ccncc3)no2)c(Cl)c1,-0.0206%
5,CC1(OC(=O)CCc2ccccc2)C(=O)C=C2C=C(c3ccc(C#N)cc3)N(C3CCCC3)C=C2C1=O (centres unmarked),-49.7%
6,CCc1ccc(OCC(=O)NNC(=O)CNC(=O)c2ccc(Br)o2)cc1,-5.45%
7,CC(NC(=O)c1ccccc1Br)C1CC2CCC1C2 (centres unmarked),-5.67%
8,Cc1ccccc1-n1c(SCC(=O)N2CCCCC2)nc(O)cc1=O,25.5%
9,CC(C)C(NC(=O)C(NC(=O)C1OC2OC(C)(C)OC2C2OC(C)(C)OC12)C(C)C)C(=O)O (centres unmarked),15.2%
10,Cc1oc(-c2ccccc2Cl)nc1CS(=O)(=O)CC(=O)N1CCOCC1,-5.4%
11,CCN1CCN(C(=O)c2ccc(COc3ccc(Cl)cc3)o2)CC1,-52.5%
12,N#C/C(=C(/O)c1ccco1)c1nc2ccccc2s1,27.7%
13,Cc1cccc(NC(=O)C2CCCC2)c1,-7.29%
14,CN(C)c1nc(OCCNC(=O)Nc2ccccc2)nc(N(C)C)n1,4.56%
15,O=C(NC1CCCCC1)c1ccc2snnc2c1,12.8%
16,COc1ccc2c(c1[N+](=O)[O-])CCC/C2=N/OC(=O)c1ccccc1SC,10.5%
17,O=C1c2cccc3cccc(c23)C(=O)N1Cc1ccco1,22.3%
18,N#Cc1cc(-c2ccc(Cl)cc2)cn(Cc2c(Cl)cccc2Cl)c1=O,-4.67%
19,O=C(NCCCN1CCOCC1)c1cc(-c2cccc(O)c2)on1,5.34%
20,N#CCc1c(C#N)c(N)nc(N2CCCC(CO)C2)c1C#N (centres unmarked),1.82%
21,COc1ccc(OC)c(C(=O)NC(CC(N)=O)c2ccc(N3CCCCCC3)c([N+](=O)[O-])c2)c1 (centres unmarked),-12.6%
22,CCCC(=O)Nc1ccc2oc(-c3ccncc3)nc2c1,5.92%

row,Structure (SMILES),"hERG current change (%, negative = inhibition) at 10uM"
1,CCOc1nc(CC)nc(NC(=O)NS(=O)(=O)c2ccccc2Cl)n1,19.5%
2,COc1ccc(CC(=O)Nc2ccc3nc(C)sc3c2)cc1OC,7.73%
3,O/N=C/c1ccccc1OCc1ccccc1F,-1.83%
4,COc1ccc(C(=O)Nc2cc3c(cc2C#N)OCO3)cc1S(=O)(=O)NCc1ccco1,-6.24%
5,O=C(Nc1ccc2c(c1)Cc1ccccc1-2)c1ccncc1,7.01%
6,CC(C)(C)c1ccc(C(=O)NNc2ncccc2-n2cccc2)cc1,-1.1%
7,Cc1csc(NC(=O)C2CCCN(S(=O)(=O)c3ccc4c(c3)oc(=O)n4C)C2)n1 (centres unmarked),-4.84%
8,COc1ccc(C(=O)NCCN2CCCC2)cc1.Cl,3.56%
9,O=CN1CCN(C(C(=O)NC2CCCCC2)c2ccc(Cl)cc2)CC1 (centres unmarked),-15%
10,O=C(Nc1ncnc2c1ncn2C1OC(COC(=O)c2ccccc2)C(F)C1O)c1ccccc1 (centres unmarked),-25.7%
11,COc1ccc(CNC(=O)C[C@H]2C(=O)N(CCc3ccccc3)C[C@@H]2Cc2ccccc2)cc1,-53%
12,Cc1ccc(C)c(Cn2c(=O)c3c(nc4n3CCN4Cc3ccco3)n(C)c2=O)c1,-3.76%
13,COc1cc(C(=O)NC2CC(C)(C)NC(C)(C)C2)cc(OC)c1OC,33.3%
14,COc1ccc(NC(=S)NC2CCCC2)c(OC)c1,11%
15,Cc1[nH]n(-c2ccccc2)c(=O)c1CCOC(=O)c1cccc(C(F)(F)F)c1,-0.969%
16,CCOC(=O)Cn1c(=NC(=O)CN2C(=O)CCC2=O)sc2cc(S(N)(=O)=O)ccc21,18.8%
17,CC1CCN(C(=O)CSc2nnc(-c3cccnc3)o2)CC1,4.89%
18,Cc1ccc(S(=O)(=O)N2CCN(C(=O)COC(=O)CSc3ccccc3)CC2)c(C)c1,12.9%
19,COC(=O)c1ccc(NC(=O)CCN2C(=O)NC(C)(C)C2=O)cc1,11.5%
20,O=C(CCC(=O)N1CCOCC1)NCCc1ccccc1,20.1%
21,COc1cccc(/C=N/NC(=O)C(=O)N2CCCC2)c1O,-5.06%
22,COc1cccc(-c2nc(CS(=O)(=O)CC(=O)N3CCCCC3)c(C)o2)c1,2.92%

row,Structure (SMILES),"hERG current change (%, negative = inhibition) at 10uM"
1,O=C(CN1CCCc2ccccc21)N/N=C/c1c(O)ccc2ccccc12,0.442%
2,Cc1ccc2c(c1)C(c1ccccc1)N(C(=O)c1ccccc1[N+](=O)[O-])CC(=O)N2 (centres unmarked),-40.5%
3,Cc1cc(C)cc(C(=O)NC(CC(N)=O)c2ccc(N3CCN(c4ccccc4)CC3)c([N+](=O)[O-])c2)c1 (centres unmarked),13.3%
4,CCCSc1nc(-n2ncc(C#N)c2N)c2c3c(sc2n1)CCC(C)C3 (centres unmarked),5.45%
5,CCN(CC)C(=O)CNC(=O)c1nn(-c2ccc(OC)c(Cl)c2)c(=O)c2ccccc12,3.83%
6,COc1ccc(C2OC(=O)CC2C(=O)NCc2ccc(F)cc2)cc1OC (centres unmarked),-15.7%
7,CC(C)(C)OC(=O)NCCCCC1=CC2=CC(=O)C(C)(O)C(=O)C2=CO1 (centres unmarked),2.97%
8,Cc1ccc(NCC(=O)N/N=C\c2ccc([N+](=O)[O-])o2)cc1,-35%
9,O=C(N/N=C/c1ccc(-c2ccccc2[N+](=O)[O-])o1)[C@H]1C[C@@H]1c1ccccc1,7.36%
10,Cc1cccc(NC(=O)CSc2nc(=O)n3ccccc3n2)c1C,-0.594%
11,Cc1c(NC(=O)c2ccc3c(c2)OCO3)cccc1-c1nc2ncccc2o1,10.3%
12,CC(=O)N1C(Nc2ccc(Cl)cc2)CCN1c1ccccc1 (centres unmarked),9.96%
13,Nc1nc(SCCN2C(=O)c3ccccc3C2=O)n[nH]1,11.6%
14,CCC(c1ccccc1)c1nnc(NC(=O)c2ccco2)s1 (centres unmarked),14.7%
15,Cc1ccc(-c2ccc(SCC(=O)N3CCCc4ccccc43)nn2)cc1,-15.7%
16,C=CCn1cnc2c(nnn2-c2ccc(C)c(C)c2)c1=O,-3.77%
17,N/C(=N\OC(=O)c1ccc(Cl)c([N+](=O)[O-])c1)c1ccccc1,22%
18,O=C(NC1CCCCC1)C1CC(=O)N(CCc2ccccc2)C1 (centres unmarked),-7.01%
19,CCOC(=O)c1ccc2c(c1)nc(-c1ccc(F)cc1)c1nccn12,5.55%
20,C/C1=C\[C@@H](C)C/C=C/[C@H]2[C@@H]3O[C@]3(C)[C@@H](C)[C@H]3[C@H](Cc4c[nH]c5ccccc45)NC(=O)[C@]32C(=O)/C=C/C(=O)[C@@H]1O,7.01%

# — PMC4336329 (PLoS ONE, 2015)
